Data reported in US20110286916A1.

B1: S3-094 (antibody, human IgG1, lambda)
heavy: EVQLVQSGAEVKKPGASVKVSCKASGYNFTGYYMHWVRQAPGQGLEWMGWINPNSGGTNYAQKFQGRVTMTRDTSISTAYMELSRLRSDDTAVYYCATDSFDYWGRGTMVTVSSASTKGPSVFPLAPSSKSTSGGTAALGCLVKDYFPEPVTVSWNSGALTSGVHTFPAVLQSSGLYSLSSVVTVPSSSLGTQTYICNVNHKPSNTKVDKRV[human IgG1 Fc not spelt out]
light: QSVLTQPPSASGTPGQRVTISCSGGSSNIGSNTVTWYQQLPGKAPKLLIYISDQRPSGVPDRFSGSKSGTSASLAIRGLQSEDEADYYCAAWDDSLNGAVFGTGTKVTVLQPKANPTVTLFPPSSEELQANKATLVCLISDFYPGAVTVAWKADGSPVKAGVETTKPSKQSNNKYAASSYLSLTPEQWKSHRSYSCQVTHEGSTVEKTVAPTECS
B2: WC-133 (antibody, human IgG1, lambda)
heavy: [about 100 residues not spelt out][about 120 residues not spelt out][human IgG1 Fc not spelt out]
light: SYELTQPPSASGTPGQRVTISCSGSNSNIGSNTLNWYQQLPGTAPKLLIYSNNQRPSWVPDRFSGSKSGTSASLAISGLQSEDEADYYCAAWDDSLNGLIFGGGTKLTVLQPKANPTVTLFPPSSEELQANKATLVCLISDFYPGAVTVAWKADGSPVKAGVETTKPSKQSNNKYAASSYLSLTPEQWKSHRSYSCQVTHEGSTVEKTVAPTECS
B3: WC-173 (antibody, human IgG1, lambda)
heavy: EVQLVQSGAEVKKPGASVKVSCKASGYNFTGYYMHWVRQAPGQGLEWMGWINPNSGGTNYAQKFQGRVTMTRDTSISTAYMELSRLRSDDTAVYYCATDSFDYWGQGTTVTVSSASTKGPSVFPLAPSSKSTSGGTAALGCLVKDYFPEPVTVSWNSGALTSGVHTFPAVLQSSGLYSLSSVVTVPSSSLGTQTYICNVNHKPSNTKVDKRV[human IgG1 Fc not spelt out]
light: QPVLTQPPSASWTPGQRVTISCSGSSSNIGSNTVHWYRQFPGTAPQLLIYSNNQRPSGVPDRFSGSKSGTSASLAIRGLQSEDEADYYCAAWDDSLNGVVFGGGIKLTVLQPKANPTVTLFPPSSEELQANKATLVCLISDFYPGAVTVAWKADGSPVKAGVETTKPSKQSNNKYAASSYLSLTPEQWKSHRSYSCQVTHEGSTVEKTVAPTECS

Assays:
[1] = biological target: human Notch1-Gal4 chimeric receptor on U2OS FlpIn TREx cells (human), P46531; test: cell-based or functional assay
[2] = biological target: human Notch2-Gal4 chimeric receptor on U2OS FlpIn TREx cells (human), Q04721; test: cell-based or functional assay
Sequence of human Notch2-Gal4 chimeric receptor on U2OS FlpIn TREx cells (human), Q04721 (Q04721 26-2471, change not shown): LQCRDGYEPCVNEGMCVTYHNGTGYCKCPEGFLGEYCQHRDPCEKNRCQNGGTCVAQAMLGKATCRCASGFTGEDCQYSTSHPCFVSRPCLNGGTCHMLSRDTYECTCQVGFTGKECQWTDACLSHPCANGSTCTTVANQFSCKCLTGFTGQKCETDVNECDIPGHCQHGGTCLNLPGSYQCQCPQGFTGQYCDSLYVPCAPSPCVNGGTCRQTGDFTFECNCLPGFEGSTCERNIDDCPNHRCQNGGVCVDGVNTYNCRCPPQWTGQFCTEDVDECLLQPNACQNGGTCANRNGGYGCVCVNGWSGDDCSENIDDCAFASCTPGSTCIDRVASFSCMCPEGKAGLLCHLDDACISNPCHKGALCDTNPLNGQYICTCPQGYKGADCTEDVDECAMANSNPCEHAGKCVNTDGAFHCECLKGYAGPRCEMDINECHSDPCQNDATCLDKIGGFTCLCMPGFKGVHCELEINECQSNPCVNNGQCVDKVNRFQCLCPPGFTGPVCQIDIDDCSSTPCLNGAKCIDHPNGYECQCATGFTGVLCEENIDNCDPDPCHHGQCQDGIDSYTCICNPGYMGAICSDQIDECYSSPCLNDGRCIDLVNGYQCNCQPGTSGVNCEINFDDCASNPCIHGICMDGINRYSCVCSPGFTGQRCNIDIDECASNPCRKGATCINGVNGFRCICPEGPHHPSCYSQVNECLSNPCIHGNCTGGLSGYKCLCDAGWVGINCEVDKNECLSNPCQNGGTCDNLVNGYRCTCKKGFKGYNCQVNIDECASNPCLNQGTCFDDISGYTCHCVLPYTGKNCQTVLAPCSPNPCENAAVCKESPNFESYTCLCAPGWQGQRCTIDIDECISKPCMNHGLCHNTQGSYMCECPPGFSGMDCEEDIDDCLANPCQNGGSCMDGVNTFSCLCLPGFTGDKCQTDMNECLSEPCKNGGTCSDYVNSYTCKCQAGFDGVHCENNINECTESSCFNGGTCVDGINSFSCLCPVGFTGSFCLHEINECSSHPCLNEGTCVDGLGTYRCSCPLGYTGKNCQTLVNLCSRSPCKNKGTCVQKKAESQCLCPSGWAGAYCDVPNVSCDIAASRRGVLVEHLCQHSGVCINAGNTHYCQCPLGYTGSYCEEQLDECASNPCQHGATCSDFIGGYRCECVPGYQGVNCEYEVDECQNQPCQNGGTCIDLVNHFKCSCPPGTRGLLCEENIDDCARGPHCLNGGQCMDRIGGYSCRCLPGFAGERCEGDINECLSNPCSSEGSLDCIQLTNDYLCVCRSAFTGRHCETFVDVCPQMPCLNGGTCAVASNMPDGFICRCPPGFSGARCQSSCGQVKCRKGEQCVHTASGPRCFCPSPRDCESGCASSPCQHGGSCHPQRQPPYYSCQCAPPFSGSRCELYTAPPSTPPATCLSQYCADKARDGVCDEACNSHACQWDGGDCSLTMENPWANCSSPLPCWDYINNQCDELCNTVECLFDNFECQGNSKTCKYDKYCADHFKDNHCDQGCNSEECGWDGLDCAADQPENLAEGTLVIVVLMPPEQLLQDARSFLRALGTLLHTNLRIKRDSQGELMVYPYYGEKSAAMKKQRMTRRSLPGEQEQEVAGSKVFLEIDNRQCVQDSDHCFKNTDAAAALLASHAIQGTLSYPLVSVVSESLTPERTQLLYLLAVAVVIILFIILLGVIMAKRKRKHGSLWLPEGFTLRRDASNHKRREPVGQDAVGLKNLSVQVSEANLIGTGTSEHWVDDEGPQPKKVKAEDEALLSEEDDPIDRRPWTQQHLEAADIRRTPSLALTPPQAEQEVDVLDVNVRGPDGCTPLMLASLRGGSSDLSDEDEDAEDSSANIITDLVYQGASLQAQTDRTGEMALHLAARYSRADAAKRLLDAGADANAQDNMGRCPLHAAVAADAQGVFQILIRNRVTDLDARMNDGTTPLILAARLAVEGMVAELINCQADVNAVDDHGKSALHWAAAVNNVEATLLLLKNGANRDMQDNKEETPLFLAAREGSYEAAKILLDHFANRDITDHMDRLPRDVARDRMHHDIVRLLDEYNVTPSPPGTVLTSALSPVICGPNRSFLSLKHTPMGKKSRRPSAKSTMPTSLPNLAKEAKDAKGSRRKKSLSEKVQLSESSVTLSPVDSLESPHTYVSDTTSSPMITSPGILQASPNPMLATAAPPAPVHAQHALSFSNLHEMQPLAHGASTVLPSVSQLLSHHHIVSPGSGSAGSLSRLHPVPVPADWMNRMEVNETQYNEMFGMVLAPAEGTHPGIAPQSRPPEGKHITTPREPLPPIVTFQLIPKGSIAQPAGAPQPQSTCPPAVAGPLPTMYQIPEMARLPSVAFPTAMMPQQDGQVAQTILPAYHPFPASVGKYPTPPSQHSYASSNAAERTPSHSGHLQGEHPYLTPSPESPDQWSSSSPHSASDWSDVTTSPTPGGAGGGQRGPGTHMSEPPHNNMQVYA

| Binder | hN1 (IC50, nM), Jag2-induced Notch1-Gal4 luciferase reporter [1] [nM] | hN2, inhibition of Luc activity at [166 nM] Mab [2] [%] |
| --- | --- | --- |
| B1 | 13 | < 10 |
| B2 | 15 | < 10 |
| B3 | 21 | < 20 |
